# In the BET-seq Pho4 binding data (Le et al. 2018):
# The list shows a part of the results. The energies were worked out here from pooled read counts, against the library average; single values are noisy.
# Biological target: T1, Pho4 (S. cerevisiae) (UniProt P07270)
# T1 sequence: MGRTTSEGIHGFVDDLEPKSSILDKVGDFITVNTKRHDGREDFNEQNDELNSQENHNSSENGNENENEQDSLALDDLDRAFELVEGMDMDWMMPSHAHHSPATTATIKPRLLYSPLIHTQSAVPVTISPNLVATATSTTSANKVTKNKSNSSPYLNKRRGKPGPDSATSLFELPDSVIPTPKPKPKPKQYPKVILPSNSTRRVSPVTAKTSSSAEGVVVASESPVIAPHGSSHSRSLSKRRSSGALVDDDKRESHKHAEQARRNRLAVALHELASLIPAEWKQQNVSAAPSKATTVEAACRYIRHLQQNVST
# Experiment: relative binding free energy (BET-seq); higher = weaker binding
# Details: reference: library average
row,Sequence,relative binding free energy
1,AAATGCACGTGATAGT,0.03 kcal/mol
2,TTGATCACGTGGAATG,0.17 kcal/mol
3,ATTTACACGTGGGCAG,0.02 kcal/mol
4,GTTTTCACGTGGATCA,0.31 kcal/mol
5,ATAGTCACGTGTCGTG,0.04 kcal/mol
6,CTTGACACGTGAGGTG,0.18 kcal/mol
7,TCTGGCACGTGTGTAA,-0.04 kcal/mol
8,TCTTACACGTGGTAGG,-0.03 kcal/mol
9,ATACTCACGTGGGGGT,0.05 kcal/mol
10,TTGTGCACGTGGATTG,0.08 kcal/mol
11,GTGCGCACGTGTTATA,-0.11 kcal/mol
12,ATTGACACGTGGACGG,0 kcal/mol
13,GACGTCACGTGGGTGC,0.01 kcal/mol
14,TCATACACGTGTTGTG,0.2 kcal/mol
15,ATGGGCACGTGACGTG,0.1 kcal/mol
16,GTGATCACGTGTCTTT,0.02 kcal/mol
17,ATGATCACGTGCTGTT,0 kcal/mol
18,ATTCGCACGTGCGTTG,0.01 kcal/mol
19,TAGGTCACGTGTTATT,0.23 kcal/mol
20,AATTACACGTGGTGAG,0.13 kcal/mol
21,TTGTGCACGTGAAATT,0.39 kcal/mol
22,TTGGTCACGTGTTGAC,0.2 kcal/mol
23,GGGATCACGTGAGTAA,0.39 kcal/mol

row,Sequence,relative binding free energy
1,AAAGTCACGTGGGCGT,-0.01 kcal/mol
2,GGTTTCACGTGAGCTT,0.45 kcal/mol
3,GGATGCACGTGGAGAA,0.1 kcal/mol
4,ATCTTCACGTGTTTAT,0.1 kcal/mol
5,GCTTTCACGTGGGAGG,0.07 kcal/mol
6,TGGTGCACGTGAGTTC,0.14 kcal/mol
7,GGTTGCACGTGGACGC,0.07 kcal/mol
8,TGGCTCACGTGATAGT,0.36 kcal/mol
9,AGAGGCACGTGTTAGT,-0.13 kcal/mol
10,AGTGTCACGTGGGACT,-0.08 kcal/mol
11,TGATGCACGTGAAGAT,0.18 kcal/mol
12,GGTTGCACGTGTGTTA,0.25 kcal/mol
13,TGGAACACGTGGATAG,0.1 kcal/mol
14,TTGGACACGTGCGAGT,-0.01 kcal/mol
15,AGTAACACGTGTCTGT,-0.05 kcal/mol
16,ATTGGCACGTGATTCA,-0.01 kcal/mol
17,ATATTCACGTGGATTA,0.14 kcal/mol
18,GGTGTCACGTGCTTAT,0.05 kcal/mol
19,GGGGTCACGTGTCGCG,0.12 kcal/mol
20,TAGGTCACGTGCATTA,0.18 kcal/mol
21,TAAATCACGTGGGGCA,-0.01 kcal/mol
22,GGAACCACGTGGCGGG,-0.05 kcal/mol
23,TTTGGCACGTGAGTGG,0.16 kcal/mol

row,Sequence,relative binding free energy
1,TTGTGCACGTGTCTGT,-0.08 kcal/mol
2,TGGCGCACGTGGCTGT,-0.19 kcal/mol
3,GTGTTCACGTGGAGGA,0.35 kcal/mol
4,CGTGCCACGTGGAGTG,-0.1 kcal/mol
5,TGATACACGTGTTATT,0 kcal/mol
6,TATTTCACGTGTAATT,0.39 kcal/mol
7,ATGAGCACGTGTGGAG,-0.09 kcal/mol
8,CGGAGCACGTGGGGTC,-0.19 kcal/mol
9,TACGGCACGTGAAGTG,0.2 kcal/mol
10,GAGTTCACGTGTGTGA,0.43 kcal/mol
11,ATATTCACGTGTATGT,0.13 kcal/mol
12,AATCTCACGTGGTTTA,0.18 kcal/mol
13,TGGCGCACGTGGGCTG,-0.15 kcal/mol
14,GATTTCACGTGATTAG,0.5 kcal/mol
15,ATCGTCACGTGTAGAT,0.38 kcal/mol
16,CCTTTCACGTGTTATT,0.22 kcal/mol
17,CGTGTCACGTGTGGAG,0.1 kcal/mol
18,GTAGTCACGTGGGGAT,-0.05 kcal/mol
19,TTGTACACGTGATATC,0.24 kcal/mol
20,GTGAACACGTGGGGGG,-0.07 kcal/mol
21,GGGATCACGTGGGAGC,0.14 kcal/mol
22,GAGAGCACGTGGTAAT,0.01 kcal/mol
23,CTTAGCACGTGGGCTG,-0.19 kcal/mol

row,Sequence,relative binding free energy
1,GGAGCCACGTGGTGGG,-0.06 kcal/mol
2,TGTTACACGTGAGTGT,0.26 kcal/mol
3,TGAGTCACGTGGGTGC,-0.06 kcal/mol
4,GGTGACACGTGGGTAT,-0.08 kcal/mol
5,GTGGGCACGTGGGCGG,-0.08 kcal/mol
6,GATCGCACGTGGAGGT,0.03 kcal/mol
7,TATTGCACGTGGTCGG,-0.1 kcal/mol
8,TGTTCCACGTGGAGTG,0.06 kcal/mol
9,AGTCTCACGTGATGCT,0.29 kcal/mol
10,TAGGTCACGTGGTGCG,0.01 kcal/mol
11,TTTAACACGTGTGTTG,-0.04 kcal/mol
12,TTTAACACGTGCGGGC,-0.06 kcal/mol
13,GGGCACACGTGGAAGG,0.2 kcal/mol
14,TTACGCACGTGTGGTC,-0.01 kcal/mol
15,ATATTCACGTGATCGT,0.21 kcal/mol
16,GAAGACACGTGGTGGC,0.05 kcal/mol
17,GATAGCACGTGCGTTG,-0.1 kcal/mol
18,GTTGACACGTGTTATA,-0.02 kcal/mol
19,TGCGTCACGTGAGTAT,0.36 kcal/mol
20,AATGCCACGTGGGGGT,-0.28 kcal/mol
21,GATTGCACGTGTCGGT,-0.01 kcal/mol
22,ATGTACACGTGGGTGG,-0.21 kcal/mol
23,ATGGGCACGTGATAAT,-0.06 kcal/mol

row,Sequence,relative binding free energy
1,TATTCCACGTGGCGTG,0 kcal/mol
2,ATGCTCACGTGTTCGT,0.3 kcal/mol
3,GGTTGCACGTGCTTTT,0.05 kcal/mol
4,CGTAACACGTGGGGTG,-0.14 kcal/mol
5,AGGAGCACGTGGGTAT,-0.17 kcal/mol
6,GTTAGCACGTGATGAA,0.19 kcal/mol
7,ATCGTCACGTGGGTTT,-0.03 kcal/mol
8,CAGGTCACGTGTAGGG,0.12 kcal/mol
9,ATTTACACGTGTATGG,0.12 kcal/mol
10,ATAGTCACGTGATAGA,0.17 kcal/mol
11,AAGTGCACGTGGCTGG,-0.12 kcal/mol
12,AGCTTCACGTGAGTGT,0.21 kcal/mol
13,TAGGCCACGTGGGATT,-0.22 kcal/mol
14,AAAATCACGTGGGTCG,0.09 kcal/mol
15,TGAAACACGTGGATAT,0.09 kcal/mol
16,GGTATCACGTGTGATG,0.29 kcal/mol
17,TATTGCACGTGAGGAC,0.22 kcal/mol
18,TGCGACACGTGGGAGG,0.01 kcal/mol
19,TTAGACACGTGAGGGT,0.19 kcal/mol
20,AGGGACACGTGAAGGT,0.2 kcal/mol
21,AATGTCACGTGTGGTT,0.11 kcal/mol
22,TAATCCACGTGGGTTT,-0.13 kcal/mol
23,GTTCACACGTGTTATT,0.09 kcal/mol
